Measured values as given in paper PMC4336329 (PLoS ONE, 2015).
Out of some 310,000 compounds screened, about 2,200 (0.71%) showed an effect of 50% or more. The effect is printed as a negative number. The list shows a part of the results.

What follows are molecules tested against human ether-à-go-go-related gene (hERG) potassium channel (human, UniProt Q12809) (assay: primary screen, population patch clamp on CHO cells stably expressing hERG).
Sequence of human ether-à-go-go-related gene (hERG) potassium channel (Q12809 whole entry, looked up): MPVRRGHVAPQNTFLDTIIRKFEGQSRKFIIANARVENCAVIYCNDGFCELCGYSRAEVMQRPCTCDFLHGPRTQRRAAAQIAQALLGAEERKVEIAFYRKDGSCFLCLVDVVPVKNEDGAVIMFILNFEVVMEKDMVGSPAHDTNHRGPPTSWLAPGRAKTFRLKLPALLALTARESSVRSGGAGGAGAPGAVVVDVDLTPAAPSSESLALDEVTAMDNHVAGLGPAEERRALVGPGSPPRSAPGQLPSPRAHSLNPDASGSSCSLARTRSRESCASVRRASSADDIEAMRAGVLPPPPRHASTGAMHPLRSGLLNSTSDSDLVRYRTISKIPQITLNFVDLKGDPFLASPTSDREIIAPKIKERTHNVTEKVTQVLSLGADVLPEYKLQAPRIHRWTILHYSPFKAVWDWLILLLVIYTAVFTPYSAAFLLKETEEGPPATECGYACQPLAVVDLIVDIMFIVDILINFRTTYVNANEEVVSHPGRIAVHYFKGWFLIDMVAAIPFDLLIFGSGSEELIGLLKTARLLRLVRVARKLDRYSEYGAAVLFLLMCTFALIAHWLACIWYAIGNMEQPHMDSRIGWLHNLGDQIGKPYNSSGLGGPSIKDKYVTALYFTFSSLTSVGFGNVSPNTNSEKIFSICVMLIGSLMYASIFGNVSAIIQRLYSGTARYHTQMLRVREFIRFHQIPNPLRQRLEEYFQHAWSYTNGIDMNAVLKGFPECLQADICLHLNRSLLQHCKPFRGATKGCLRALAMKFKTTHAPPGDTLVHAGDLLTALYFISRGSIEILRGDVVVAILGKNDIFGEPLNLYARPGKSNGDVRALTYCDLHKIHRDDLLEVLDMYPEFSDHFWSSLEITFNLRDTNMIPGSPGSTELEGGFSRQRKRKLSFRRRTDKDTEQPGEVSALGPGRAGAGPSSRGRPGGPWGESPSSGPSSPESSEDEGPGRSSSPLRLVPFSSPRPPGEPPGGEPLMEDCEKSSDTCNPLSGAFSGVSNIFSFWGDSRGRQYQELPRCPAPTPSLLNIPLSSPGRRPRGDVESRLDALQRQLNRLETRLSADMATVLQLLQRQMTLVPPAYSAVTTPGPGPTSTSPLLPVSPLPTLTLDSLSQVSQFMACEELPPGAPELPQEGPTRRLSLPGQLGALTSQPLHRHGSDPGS

| SMILES | hERG current change (%, negative = inhibition) at 1uM [%] |
| --- | --- |
| CCOc1ccc(S(=O)(=O)N(C)C)cc1-c1nc2c(C(C)(C)C)nn(C)c2c(=O)[nH]1 | 13.5 |
| C/C(CC(=O)Nc1ccc(N(C)C)cc1)=N\NC(=O)c1cnccn1 | 20 |
| CCOC(=O)c1c(-c2ccccc2)nc2c(C)cccn12 | -5.63 |
| COc1cccc(NC(=S)NCCc2ccccn2)c1 | 16.4 |
| CCOc1ccc(-n2cc(C(=O)Nc3cccc(OC)c3)c3cc(OC)c(OC)cc3c2=O)cc1 | 6.12 |
| Cn1cccc1C(=O)OCC(=O)N1c2ccccc2NC(=O)C1(C)C | 9.18 |
| CCC(C)(C)C(=O)Nc1nnc(CCc2ccccc2)s1 | 6.76 |
| CCOc1ccc(CCNC(=O)Cc2ccc(NC3=NC4CS(=O)(=O)CC4S3)cc2)cc1 (centres unmarked) | 17.7 |
| CCCCNC(=O)N(O)C1N(/N=C/c2ccco2)C(=S)SC1(C)C (centres unmarked) | 4.84 |
| O=C(c1cc2ncc(Br)cn2n1)N1CCN(C(=O)c2ccco2)CC1 | -5.78 |
| O=c1cc(Cc2nnc(SCc3ccccc3)n2-c2ccc(Cl)cc2)[nH]c(=O)[nH]1 | 3.9 |
| Cc1cccc(N2CCN(C(=O)CCCSc3nc4ccccc4[nH]3)CC2)c1C | 0.194 |
| Cc1nc(Nc2ccc(S(N)(=O)=O)cc2)oc1C | 4.52 |
| O=C(NCc1ccc(C(F)(F)F)cc1)c1ccc2c(c1)S(=O)(=O)c1ccccc1C2=O | 7.23 |
| Cc1ccc(NC(=O)C2CCN(c3cnccn3)CC2)cc1C | 14 |
| CNC(=S)N1N=C(c2ccc(C)cc2)CC1c1ccc(Cl)cc1 (centres unmarked) | -4.07 |
| CC(C)C(OC(=O)c1ccco1)C(=O)NC1CCCCC1 (centres unmarked) | 5.05 |
| COc1ccc(NS(=O)(=O)c2cccc(NC(=O)CCC(=O)c3cccs3)c2)cc1 | 13.7 |
| CCCC(=O)NC(c1ccccc1)c1c(O)ccc2ccccc12 (centres unmarked) | 13.3 |

| SMILES | hERG current change (%, negative = inhibition) at 1uM [%] |
| --- | --- |
| Cc1ccc(C(OCC(O)CNC(CO)C(O)c2ccc([N+](=O)[O-])cc2)c2ccccc2)cc1 (centres unmarked) | 3.99 |
| Cc1cc(O)c(N)c(C)c1Cl.Cl | 11.1 |
| COc1cccc(N(C(=O)Cn2nnc(-c3ccc(C)o3)n2)C(C(=O)NC(C)(C)C)c2cccs2)c1 (centres unmarked) | 6.14 |
| C/C(=N\NC(=O)c1ccccc1C)c1cccc([N+](=O)[O-])c1 | 9.71 |
| COc1ccccc1NC(=O)C/C(C)=N/NC(=O)COc1c(Br)cc(Br)cc1OC | 10.8 |
| Cc1ccccc1CN1CCN(C(C)C(=O)NCc2ccccc2)CC1 (centres unmarked) | 0.872 |
| COc1ccc(-c2nc(N)n(C(=O)c3ccco3)n2)cc1 | 1.93 |
| Cn1c(CCc2ccc(N)cc2)nc2ccccc21 | -0.488 |
| O=C(Nc1ccccc1)c1ccc(N2CCN(c3ccccc3)CC2)c(S(=O)(=O)N2CCOCC2)c1 | -4.09 |
| O=C(NCCNC1CCC(c2ccccc2)CC1)c1cccs1 (centres unmarked) | 6.95 |
| CCOc1ccc(C(=O)C2CCN(CC(=O)Nc3nccs3)CC2)cc1 | -46.4 |
| CCc1nc(N2CCCC(C)C2)c2oc3ccccc3c2n1.Cl (centres unmarked) | 9.52 |
| Cc1nc2ccsc2c(=O)n1-c1ccc(Cl)cc1 | 10 |
| O=C(CCCl)N1CCN(c2nc(-c3ccccc3)cs2)CC1 | 7.98 |
| O=C(NCc1ccco1)C1Cc2ccccc2CN1C(=O)c1ccco1 (centres unmarked) | 5.38 |
| COc1cc2c(cc1OC)-c1cc(NC3CCCC3)nc(=O)n1CC2 | 13.4 |
| O=C(Cc1ncc(C(F)(F)F)cc1Cl)N1CCN(c2ccc(F)cc2)CC1 | -14.4 |
| CCOc1ccc(N(CC(=O)NCc2ccccc2)S(C)(=O)=O)cc1 | -0.437 |
| CC(NCc1ccc(S(N)(=O)=O)cc1)C(=O)Nc1cccc(Cl)c1 (centres unmarked) | 5.24 |

| SMILES | hERG current change (%, negative = inhibition) at 1uM [%] |
| --- | --- |
| O=C(NCCCN1CCCC1=O)c1cccc(S(=O)(=O)N2CCN(c3ccccc3)CC2)c1 | -0.597 |
| CN(CC(=O)NCc1ccco1)S(=O)(=O)c1ccc2c(c1)n(C)c(=O)c(=O)n2C | 2.82 |
| CC(=O)c1ccc(S(=O)(=O)N2CCCC2)cc1 | 2.46 |
| CCS(=O)(=O)N1CCN(C2Cc3ccccc3C2)CC1.O=C(O)C(=O)O | 5.16 |
| C=CCOc1ccc(/C=N/NC(=O)CN2CCOCC2)cc1OCC | 19.5 |
| CSc1nccc(Oc2ccc(C#N)cc2)n1 | 6.42 |
| C/C(=N\OCC(=O)Nc1nc2ccccc2s1)c1ccccc1 | 2.13 |
| COC(=O)C1=C(c2ccc(F)cc2OCc2ccccc2)C[C@@H]2CC[C@H]1N2C(=O)NCc1cccc(C(F)(F)F)c1 | 4.62 |
| Cc1nn(-c2ccc(Cl)cc2)c(Cl)c1/C=N/NC(=O)c1ccc(NS(=O)(=O)c2cccs2)cc1 | 12 |
| Cc1ccc(CNC(=O)CCC2CCCN(Cc3cc4ccccc4o3)C2)o1 (centres unmarked) | -36.8 |
| CCC1CCCCN1C(=S)NC(=O)c1cccc([N+](=O)[O-])c1 (centres unmarked) | 17.7 |
| C[C@H](NC(=O)C1CCN(S(=O)(=O)c2ccccc2)CC1)C(=O)NCc1ccc(Cl)cc1Cl | 7.77 |
| Cc1nnc(C)n1/N=C/c1ccc(O)cc1 | 4.83 |
| Cc1c(Cl)c(C(F)(F)F)nn1CC(=O)NCc1ccco1 | 14.5 |
| COc1cccc(-n2c(C)c(C(C)=O)c(C(C)=O)c2C)c1 | 3.89 |
| CCOC(=O)c1sc(NC(C)=O)nc1-c1ccccc1 | 12.8 |
| COc1ccc(N2CSC3=C(C#N)C(c4cc(OC)ccc4OC)CC(=O)N3C2)c(OC)c1 (centres unmarked) | 12.8 |
| Cc1ccccc1NC(=O)C1c2cccc[n+]2CC(=O)N1c1c(C)cccc1C.[I-] (centres unmarked) | 9.62 |
